Data: PubChem BioAssay (NCATS)
“And” between values parts separate entries of the source, which are not always exact repeats. Equal entries are not always repeated. The inconclusive results got no clear call from the source; some entries with a clear call stand among them for comparison. For part of these data: A potency beside an inconclusive call is a rough fit, not a confirmed value. The source made the active and inactive calls. Unless noted, the call rests on the fitted dose curve; in most records, active means well fitted curve in the direction sought with a large enough effect; inconclusive means small, poorly fitted or top-dose-only effect, or another doubt; inactive means no such curve, though single readings can be large; an effect the other way counts as inactive or inconclusive.

Key:
[1] = biological target: Cytochrome P450 2C9 (Homo sapiens) (UniProt P11712); experiment: Cytochrome P450 family 2 subfamily C member 9 (CYP2C9) small molecule antagonists: luciferase biochemical (cell-free) qHTS assay (AID 1645842; active means well fitted curve in the direction sought with a large enough effect in the repeat runs; inconclusive means weak or mixed curves; inactive means no such curve, though single readings can be large; an effect the other way counts as inactive or inconclusive; further: potency means the concentration at half of the fitted maximal effect; nearly all actives have a fitted effect of over 55% in size)
UniProt P11712, sequence (P11712 whole entry, looked up): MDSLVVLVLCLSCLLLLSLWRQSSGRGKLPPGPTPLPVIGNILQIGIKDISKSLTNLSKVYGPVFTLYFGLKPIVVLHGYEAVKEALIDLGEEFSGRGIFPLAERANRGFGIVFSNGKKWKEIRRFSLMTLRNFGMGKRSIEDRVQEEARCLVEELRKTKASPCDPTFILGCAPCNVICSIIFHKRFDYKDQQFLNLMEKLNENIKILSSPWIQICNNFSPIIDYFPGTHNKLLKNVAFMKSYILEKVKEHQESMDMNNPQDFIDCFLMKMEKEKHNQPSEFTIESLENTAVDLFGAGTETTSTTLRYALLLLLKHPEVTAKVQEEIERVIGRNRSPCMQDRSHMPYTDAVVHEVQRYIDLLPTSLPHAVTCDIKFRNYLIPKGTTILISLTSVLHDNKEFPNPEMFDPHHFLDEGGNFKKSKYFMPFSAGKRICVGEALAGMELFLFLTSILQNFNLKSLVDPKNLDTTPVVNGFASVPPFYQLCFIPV
Summary of the method: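 P450-Glo CYP2C9 system: proluciferin substrate with enzyme in mix containing 0.4% BSA, 10 min at room temperature, then NADPH regeneration solution added and incubated 1 h at 37C. Detection reagent stopped reaction; luminescence read after 20 min as RLU.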

[2] = Primary qHTS for inhibitors of nuclear receptor binding SET domain protein 2 (NSD2) in an isogenic RCH-ACV NSD2 p.E1099K mutant (9B) (AID 1645876); further: nearly all actives have a fitted effect of over 70% in size; further: potency means the concentration at half of the fitted maximal effect
[3] = system: Nanoluciferase (engineered Oplophorus gracilirostris luciferase); experiment: Primary Nanoluciferase (NLuc) qHTS assay for identification of artifact compounds. (AID 1845222);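 further: NLuc secreted into diluted conditioned medium of S16 cells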
Summary of the method: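 Using secreted nanoluciferase in S16 culture medium (0.22 um filtered, 1:55 dilution), compounds were preincubated 15 min at RT. Signal was generated with Nano-Glo reagent (1:100) over 5 min.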

HaCat = experiment: Cytotoxic Profiling of Annotated Libraries Using Quantitative High-Throughput Screening (AID 1296008); conditions: Five cell lines viability, CellTiter-Glo ATP luminescence, 48-72 h; max response: stronger effect = lower value; further: potency means the concentration at half of the fitted maximal effect; nearly all actives have a fitted effect of over 60% in size
Summary of the method: (§1)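 Compounds were pin-transferred onto cells and incubated 48 or 72 hr at 37 degree Celsius, 95% humidity. CellTiter-Glo was added, plates sat 10 min at room temperature, then ATP-coupled luminescence was imaged as the viability read-out.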

KB-3-1 = experiment: as above; conditions: Five cell lines viability, CellTiter-Glo ATP luminescence, 48-72 h; max response: stronger effect = lower value
Summary of the method: as §1

NIH3T3 = experiment: as above; conditions: Five cell lines viability, CellTiter-Glo ATP luminescence, 48-72 h; max response: stronger effect = lower value
Summary of the method: as §1

[4] = P-glycoprotein substrates identified in KB-8-5-11 adenocarcinoma cell line, qHTS therapeutic library screen (AID 1346987); further: potency means the concentration at half of the fitted maximal effect; nearly all actives have a fitted effect of over 65% in size
Summary of the method: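 Compounds are pinned in dose-response onto KB-8-5-11 cells (500 cells/well, colchicine-free medium) and left 72 h at 37 degree C. CellTiter-Glo luminescence then yields AC50 values.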

[5] = qHTS of pediatric cancer cell lines to identify multiple opportunities for drug repurposing: Primary screen for TC32 cells (AID 1347089); further: nearly all actives have a fitted effect of over 60% in size
Summary of the method: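 In the primary qHTS, MIPE compounds were tested at 11 concentrations (0.78 nM to 46 µM) and NPC compounds at 8 (0.59 nM to 46 µM) on TC32 cells for 48 h. CellTiter-Glo luminescence gave viability.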

[6] = qHTS of pediatric cancer cell lines to identify multiple opportunities for drug repurposing: Primary screen for DAOY cells (AID 1347090); conditions: DAOY medulloblastoma viability, CellTiter-Glo luminescence, 48 h; activity change, negative = cytotoxic: at 46 µM (top of the series); further: nearly all actives have a fitted effect of over 55% in size
Summary of the method: (§2)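 Eight- or eleven-point concentration series, 48 h treatment at 37 degrees C in growth media; readout CellTiter-Glo luminescence. Potency and efficacy were taken from the concentration-response curves.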

[7] = qHTS of pediatric cancer cell lines to identify multiple opportunities for drug repurposing: Primary screen for SJ-GBM2 cells (AID 1347091); further: potency means the concentration at half of the fitted maximal effect
Summary of the method: as §2

[8] = qHTS of pediatric cancer cell lines to identify multiple opportunities for drug repurposing: Primary screen for BT-37 cells (AID 1347094); further: potency means the concentration at half of the fitted maximal effect
Summary of the method: (§3)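 Viability was measured as metabolically active cells after 48 hours of treatment, read by CellTiter-Glo luminescence. Compounds were tested at multiple final concentrations, giving concentration-response curves.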

[9] = qHTS of pediatric cancer cell lines to identify multiple opportunities for drug repurposing: Primary screen for NB-EBc1 cells (AID 1347095); further: potency means the concentration at half of the fitted maximal effect
Summary of the method: as §3

[10] = qHTS of pediatric cancer cell lines to identify multiple opportunities for drug repurposing: Primary screen for BT-12 cells (AID 1347101); further: potency means the concentration at half of the fitted maximal effect; nearly all actives have a fitted effect of over 25% in size
Summary of the method: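 Cells (500-1,000/well) rested 5 h, then received compounds for 48 h; metabolically active cells were measured by CellTiter-Glo luminescence. Final concentrations spanned up to 46 µM (MIPE, 11-point) or 0.59 nM-46 µM (NPC, 8-point) in primary screens, 11-point in follow-ups.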

[11] = qHTS of pediatric cancer cell lines to identify multiple opportunities for drug repurposing: Primary screen for Rh18 cells (AID 1347102); further: potency means the concentration at half of the fitted maximal effect; nearly all actives have a fitted effect of over 65% in size
Summary of the method: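 Cells (500-1,000/well) in growth media were settled 5 h at 37 degrees C, then given compounds for 48 h. Viability was read as CellTiter-Glo luminescence. Primary runs used MIPE at 11 points (0.78 nM-46 µM) and NPC at 8 points (0.59 nM-46 µM); follow-ups used 11 points.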

[12] = qHTS of pediatric cancer cell lines to identify multiple opportunities for drug repurposing: Primary screen for RD cells (AID 1347104); conditions: RD rhabdomyosarcoma viability, CellTiter-Glo luminescence, 48 h; activity change, negative = cytotoxic: at 46 µM (top of the series); further: potency means the concentration at half of the fitted maximal effect; nearly all actives have a fitted effect of over 55% in size
Summary of the method: as §3

[13] = system: Zika virus NS2B-NS3 protease; experiment: Primary screen GU AMC qHTS for Zika virus inhibitors (AID 1347154); further: potency means the concentration at half of the fitted maximal effect; nearly all actives have a fitted effect of over 70% in size
Summary of the method: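 Unlinked Zika NS2B hydrophilic domain/NS3 protease domain noncovalent complex (25 nM final) in 10 mM Tris-HCl pH 8.0, 0.01% Tween 20, with AMC peptide substrate. Fluorescence (ex 340, em 450 nm) change over 15 min, room temperature; percent inhibition fitted to 4-parameter Hill equation.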

[14] = system: Zika virus NS2B-NS3 protease (unlinked complex); experiment: Primary screen GU Rhodamine qHTS for Zika virus inhibitors: Unlinked NS2B-NS3 protease assay (AID 1347159); further: potency means the concentration at half of the fitted maximal effect; nearly all actives have a fitted effect of over 60% in size
Summary of the method: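 Percent inhibition came from the 15-min rise in Rhodamine110 fluorescence (1.5 microM substrate, ~15% conversion), normalized to no-inhibitor and no-enzyme wells and Hill-fitted. Unlinked protease, 25 nM, pH 8.0 Tris buffer; compounds up to 114 microM, 15-min preincubation.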

[15] = system: Zika virus NS2B-NS3 protease (linked construct); experiment: Primary screen NINDS Rhodamine qHTS for Zika virus inhibitors (AID 1347160); conditions: activity change, negative = inhibition: at 57.1 µM (top of the series) unless noted; further: potency means the concentration at half of the fitted maximal effect; nearly all actives have a fitted effect of over 55% in size
Summary of the method: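 Rhodamine110-peptide cleavage (1.5 µM substrate) by 25 nM linked NS2B-NS3 enzyme at pH 8.0 (Tris, Tween 20), after 15 min RT preincubation with compounds; 15-min fluorescence change normalized to controls and Hill-fitted.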

[16] = biological target: Calcium and integrin-binding protein 1 (Homo sapiens) (UniProt Q99828); experiment: Confirmatory qHTS for Identification of Calcium Integrin Binding Protein 1 (CIB1) Competitor (AID 1508617); further: potency means the concentration at half of the fitted maximal effect; nearly all actives have a fitted effect of over 65% in size
UniProt Q99828, sequence (Q99828 whole entry, looked up): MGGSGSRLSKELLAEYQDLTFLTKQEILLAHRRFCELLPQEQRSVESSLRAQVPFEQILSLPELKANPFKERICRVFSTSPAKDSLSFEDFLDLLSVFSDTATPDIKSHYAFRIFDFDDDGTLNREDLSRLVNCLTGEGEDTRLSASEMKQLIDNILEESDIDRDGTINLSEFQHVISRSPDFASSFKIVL
Summary of the method: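 Compounds at up to 114 uM final met 1 uM GST-tagged CIB1 for 15 min at room temperature (HEPES pH 7.4, 5 mM CaCl2). FITC-labelled alphaIIb peptide, 100 nM, added; polarization read after 15 min more.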

[17] = biological target: Calcium and integrin-binding protein 1 (Homo sapiens) (UniProt Q99828); experiment: Primary qHTS for Identification of Calcium Integrin Binding Protein 1 (CIB1) Competitor (AID 1508620); further: potency means the concentration at half of the fitted maximal effect;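 on activity change, negative = inhibition: GST tagged CIB1 binding a fluorescein labelled alphaIIb integrin peptide tracer; top concentration of the series differs between compounds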
Summary of the method: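 Fluorescence polarization competition: CIB1-GST (1 uM final) preincubated with compound 15 min at room temperature, then FITC-labeled alphaIIb peptide (100 nM final) added for another 15 min. Polarization read at Ex 480/Em 540.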

[18] = Primary qHTS for small molecule stabilizers of the endoplasmic reticulum resident proteome: Secreted ER Calcium Modulated Protein (SERCaMP) assay (AID 1508630); conditions: SH-SY5Y GLuc-SERCaMP (Gaussia luciferase released on ER calcium loss) secretion, thapsigargin, luminescence; activity change, negative = inhibition: at 38.4 µM (top of the series) unless noted; further: potency means the concentration at half of the fitted maximal effect
Summary of the method: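 The SH-SY5Y reporter protocol was run at 3 concentrations up to 38.3 uM (primary) or 11 concentrations (follow-up): 16 h compound, 100 nM thapsigargin for 4 h, then extracellular luciferase luminescence.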

[19] = Primary fluorescence-based thiol-reactive (MSTI) qHTS assay for identification of artifact compounds. (AID 1845221);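 further: potency means the concentration at half of the fitted maximal effect; thiol-reactive compounds lower the probe fluorescence signal; nearly all actives have a fitted effect of over 65% in size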
Summary of the method: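 Reactivity toward the thiol probe MSTI (4 uM) is scored by fluorescence at Ex/Em 525/598 nm after 1 h at room temperature. Acetyl-MSTI and MSTI define the activity scale.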

[20] = Primary redox qHTS assay for identification of artifact compounds. (AID 1845223); conditions: Amplex Red/HRP redox cycling with DTT, fluorescence; series mostly up to 53.8 µM; further: potency means the concentration at half of the fitted maximal effect
Summary of the method: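 Redox-cycling detection via DTT (250 uM final) oxidation coupled to Amplex Red (25 uM)/HRP (250 mU/mL) in HBSS. 15 min preincubation plus 30 min after DTT, room temperature. Ex/Em 525/598 nm; 4-parameter Hill fit against DMSO and 10 uM DA3003.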

[21] = Quantitative High-Throughput drug screen in 47 multiple myeloma cell lines against the NCATS MIPE library collection: FR4_PLB cell viability assay (AID 1918924; further: potency means the concentration at half of the fitted maximal effect; nearly all actives have a fitted effect of over 35% in size)
Summary of the method: (§4)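 qHTS of the MIPE 4.0 collection: 500 myeloma cells/well, 48 h drug exposure at 37C in 5% CO2, then CellTiter-Glo for 5 min at room temperature before luminescence reading.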

[22] = Quantitative High-Throughput drug screen in 47 multiple myeloma cell lines against the NCATS MIPE library collection: Delta47_JCRB cell viability assay (AID 1918925; further: potency means the concentration at half of the fitted maximal effect; nearly all actives have a fitted effect of over 45% in size); conditions: Delta47 myeloma viability, CellTiter-Glo ATP, 48 h; viability (% of DMSO): at 45.8 µM (top of the series)
Summary of the method: (§5)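 Steps: seed 500 cells per well; pin-transfer MIPE 4.0 library; incubate 48 h at 37C, 5% CO2, humidified; add CellTiter-Glo, 5 min room temperature; read luminescence.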

[23] = Quantitative High-Throughput drug screen in 47 multiple myeloma cell lines against the NCATS MIPE library collection: AMO1_DSMZ cell viability assay (AID 1918927; further: nearly all actives have a fitted effect of over 30% in size); conditions: AMO1 myeloma cells viability, CellTiter-Glo ATP luminescence, 48 h; viability, % of DMSO: at 45.8 µM (top of the series)
Summary of the method: as §5

[24] = Quantitative High-Throughput drug screen in 47 multiple myeloma cell lines against the NCATS MIPE library collection: ARP1_JJKsccF8 cell viability assay (AID 1918928; further: potency means the concentration at half of the fitted maximal effect; nearly all actives have a fitted effect of over 40% in size)
Summary of the method: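 CellTiter-Glo luminescence after 48 h exposure gives viability, scaled between DMSO-only (100%) and media-only (0%) controls. Library compounds are pinned onto 500 myeloma cells per well, incubated at 37C with 5% CO2.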

[25] = Quantitative High-Throughput drug screen in 47 multiple myeloma cell lines against the NCATS MIPE library collection: ARD_JJKsccE7 cell viability assay (AID 1918929); conditions: ARD myeloma cell line viability, CellTiter-Glo, 48 h; viability: at 45.8 µM (top of the series)
Summary of the method: as §5

[26] = Quantitative High-Throughput drug screen in 47 multiple myeloma cell lines against the NCATS MIPE library collection: Karpas417_ECACC cell viability assay (AID 1918961); conditions: Karpas417 myeloma viability, CellTiter-Glo ATP luminescence, 48 h; viability (% of DMSO): at 45.8 µM (top of the series); further: potency means the concentration at half of the fitted maximal effect
Summary of the method: (§6)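 Luminescent ATP measurement with CellTiter-Glo gives viability, scaled between DMSO-only wells (100%) and media-only wells (0%). Cells, 500 per well, faced library compounds for 48 hours at 37C.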

[27] = Quantitative High-Throughput drug screen in 47 multiple myeloma cell lines against the NCATS MIPE library collection: KHM11_PLB cell viability assay (AID 1918962); conditions: KHM11 myeloma cell viability, CellTiter-Glo ATP luminescence, 48 h; series mostly up to 45.8 µM; further: nearly all actives have a fitted effect of over 35% in size
Summary of the method: as §4

[28] = Quantitative High-Throughput drug screen in 47 multiple myeloma cell lines against the NCATS MIPE library collection: JIM1_ECACC cell viability assay (AID 1918964)
Summary of the method: as §5

[29] = Quantitative High-Throughput drug screen in 47 multiple myeloma cell lines against the NCATS MIPE library collection: H1112_PLB cell viability assay (AID 1918967; further: potency means the concentration at half of the fitted maximal effect; nearly all actives have a fitted effect of over 30% in size)
Summary of the method: as §5

[30] = Quantitative High-Throughput drug screen in 47 multiple myeloma cell lines against the NCATS MIPE library collection: KMS27_JCRB cell viability assay (AID 1918970); conditions: KMS27 myeloma cells, CellTiter-Glo ATP viability, 48 h; viability (% of DMSO): at 45.8 µM (top of the series); further: potency means the concentration at half of the fitted maximal effect; nearly all actives have a fitted effect of over 30% in size
Summary of the method: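 CellTiter-Glo luminescence after 48 h drug exposure at 37 °C; 500 cells/well, 1536-well format, pin-tool compound addition; DMSO = 100%, media-only = 0% viability.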

[31] = Quantitative High-Throughput drug screen in 47 multiple myeloma cell lines against the NCATS MIPE library collection: KMS12PE_JCRB cell viability assay (AID 1918972); further: potency means the concentration at half of the fitted maximal effect; nearly all actives have a fitted effect of over 30% in size
Summary of the method: as §6
Tags describe the fitted curve by direction and shape.

CCc1cccc(CC)c1NC(=O)c1nn(C)c2c1CCc1cnc(Nc3ccc(C(=O)NC4CCN(C)CC4)cc3OC(F)(F)F)nc1-2
Potency [1]: inconclusive: 10.4 µM [inhibitor, single point]
Potency [2]: inconclusive: 1.78 µM [inhibitor, full curve]
Potency [3]: inactive
Potency (HaCat): inconclusive: 0.1 µM [inhibitor, full curve, poor fit]
Potency (KB-3-1): active: 5.63 µM
Potency (NIH3T3): inconclusive: 3.17 µM [inhibitor, single point]

Cc1coc2c1C(=O)C(=O)c1c-2ccc2c(C)cccc12
Potency [4]: inconclusive: 18.4 µM [inhibitor, single point]
Potency [5]: inactive
Potency [6]: inactive
Potency [7]: inconclusive: 2.35 µM [cytotoxic, partial curve]
Potency [8]: inconclusive: 7.69 µM [cytotoxic, partial curve]
Potency [9]: inconclusive: 18.7 µM [cytotoxic, single point]
Potency [10]: inconclusive: 5.44 µM [cytotoxic, partial curve]
Potency [11]: inconclusive: 14.8 µM [cytotoxic, partial curve]
Potency [12]: inconclusive: 2.35 µM [cytotoxic, partial curve, poor fit]
Potency [13]: inconclusive: 21.5 µM [inhibitor, partial curve]
Potency [14]: active: 35.5 µM
Potency [15]: active: 25.1 µM
Potency [16]: active: 39.8 µM
Potency [17]: inactive and inconclusive: 39.8 µM [inhibitor, partial curve]
Potency [18]: inconclusive: 0.168 µM [inhibitor, full curve, poor fit]
Potency [1]: active: 9.52 µM
Potency [2]: inactive
Potency [19]: active: 3.36 µM
Potency [20]: active: 1.06 µM
Potency [21]: active: 20.9 µM
Potency [22]: inconclusive: 18.7 µM [cytotoxic, partial curve]
Potency [23]: inactive
Potency [24]: inconclusive: 0.105 µM [cytotoxic, full curve, poor fit]
Potency [25]: inactive
Potency [26]: inconclusive: 0.0148 µM [rising, full curve, poor fit]
Potency [27]: inactive
Potency [28]: inactive
Potency [29]: inconclusive: 11.8 µM [cytotoxic, partial curve]
Potency [30]: inconclusive: 5.9 µM [cytotoxic, partial curve, poor fit]
Potency [31]: inconclusive: 1.66 µM [cytotoxic, partial curve, poor fit]
